Measurements: the supplement of paper PMC4967469
IC50 is the fitted dose that halves viability relative to control wells, and lower means more sensitive; fits outside the tested doses are given as limits. For AUC the same curve is integrated over the 256-fold range of doses and scaled to a fraction; the more sensitive the line, the further below 1. For part of these data: Any top dose called inferred was calculated from the reported fits. For part of these data: Drugs with an entry number were screened twice under separate entries, and the two screens often disagree.

Tests used:
Test in all cases: Viability of human cancer cell lines after 72 h of drug (GDSC screen)
[1] = compound: CC(=O)c1c(C)c2cnc(Nc3ccc(N4CCNCC4)cn3)nc2n(C2CCCC2)c1=O [PD-0332991]
Protocol: (§1)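 Human cancer cell lines in 384-well plates, medium with 10% serum, drug for 72 h over a 256-fold dose range (nine 2-fold or five 4-fold steps up to the top dose). Adherent lines were fixed and stained with the nucleic acid dye Syto60, suspension lines read with resazurin; signal relative to control wells, capped at 0 and 100%. One two-parameter sigmoid per drug and line, fitted in a mixed model over all curves with the slope shared within a line.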

[2] = compound: COc1cc2c(Nc3ccc(NC(=O)c4ccccc4)cc3)ncnc2cc1OCCCN1CCOCC1 [ZM-447439]; conditions: top dose inferred
Protocol: as §1

[3] = compound: Cn1cnc2c(F)c(Nc3ccc(Br)cc3Cl)c(C(=O)NOCCO)cc21 [AZD6244]; conditions: screen: GDSC drug entry 1062
Protocol: as §1

Cell Line	AUC [1]	IC50 [1] [µM]	AUC [2]	IC50 [2] [µM]	AUC [3]	IC50 [3] [µM]
JHH-1 (liver, adherent, top dose 4 µM)	0.985	> 4	0.935	> 4	0.532	0.308
JHH-2 (liver, adherent, top dose 4 µM)	0.939	> 4	0.983	> 4	0.874	> 4
JHH-4 (liver, adherent, top dose 4 µM)	0.844	2.84	0.944	> 4	0.987	> 4
JHH-7 (liver, adherent, top dose 4 µM)	0.943	> 4	0.939	> 4	0.868	3.28
JHOS-4 (ovary, adherent, top dose 4 µM)	0.98	> 4	0.98	> 4	0.98	> 4
JHU-022 (head and neck, adherent, top dose 4 µM)	0.738	1.46	0.881	> 4	0.915	> 4
JHU-029 (head and neck, adherent, top dose 4 µM)	0.846	3.99	0.908	> 4	0.973	> 4
JJN-3 (haematopoietic neoplasm, suspension, top dose 4 µM)	0.993	> 4	0.89	3.15	0.986	> 4
JM1 (B-cell lymphoma, suspension, top dose 4 µM)	0.801	1.64	0.887	3.37	0.989	> 4
JSC-1 (B-cell lymphoma, suspension, top dose 4 µM)	0.91	> 4	0.875	3.88	0.984	> 4
JURL-MK1 (chronic myeloid leukaemia, suspension, top dose 4 µM)	0.504	0.256	0.882	> 4	0.924	> 4
JVM-2 (lymphoid neoplasm, suspension, top dose 4 µM)	0.856	> 4	0.885	> 4	0.965	> 4
JVM-3 (lymphoid neoplasm, suspension, top dose 4 µM)	0.863	3.57	0.874	> 4	0.962	> 4
JiyoyeP-2003 (Burkitt lymphoma, suspension, top dose 4 µM)	0.968	> 4	0.99	> 4	0.986	> 4
K2 (melanoma, adherent, top dose 4 µM)	0.928	> 4	0.978	> 4	0.974	> 4
KARPAS-45 (lymphoblastic leukaemia, suspension, top dose 4 µM)	0.583	0.406	0.632	0.541	0.95	> 4
KARPAS-231 (B-cell leukaemia, suspension, top dose 4 µM)	0.905	3.16	0.771	1.2	0.992	> 4
KARPAS-299 (anaplastic large cell lymphoma, suspension, top dose 4 µM)	0.877	2.89	0.966	> 4	0.975	> 4
KARPAS-422 (B-cell lymphoma, suspension, top dose 4 µM)	0.931	> 4	0.953	> 4	0.98	> 4
KARPAS-620 (haematopoietic neoplasm, suspension, top dose 4 µM)	0.967	> 4	0.95	> 4	0.986	> 4
KARPAS-1106P (B-cell lymphoma, suspension, top dose 4 µM)	0.92	> 4	0.971	> 4	0.985	> 4

Cell Line	AUC [1]	IC50 [1] [µM]	AUC [2]	IC50 [2] [µM]	AUC [3]	IC50 [3] [µM]
KATOIII (stomach, semi-adherent, top dose 4 µM)	0.835	2.33	0.928	> 4	0.99	> 4
KCL-22 (chronic myeloid leukaemia, suspension, top dose 4 µM)	0.921	> 4	0.989	> 4	0.991	> 4
KE-37 (lymphoblastic leukaemia, suspension, top dose 4 µM)	0.518	0.276	0.726	0.909	0.981	> 4
KELLY (neuroblastoma, adherent, top dose 4 µM)	0.368	0.112	0.852	2.66	0.952	> 4
KG-1 (acute myeloid leukaemia, suspension, top dose 4 µM)	0.933	> 4	0.952	> 4	0.988	> 4
KGN (ovary, adherent, top dose 4 µM)	0.785	2.12	0.871	> 4	0.888	> 4
KINGS-1 (glioma, adherent, top dose 4 µM)	0.826	3.77	0.925	> 4	0.884	> 4
KLE (endometrium, adherent, top dose 4 µM)	0.976	> 4	0.949	> 4	0.95	> 4
KM12 (large intestine, adherent, top dose 4 µM)	0.732	1.22	0.873	> 4	0.799	2.11
KM-H2 (Hodgkin lymphoma, suspension, top dose 4 µM)	0.99	> 4	0.99	> 4	0.984	> 4
KMH-2 (thyroid, adherent, top dose 4 µM)	0.99	> 4	0.902	> 4	0.45	0.185
KMOE-2 (acute myeloid leukaemia, suspension, top dose 4 µM)	0.912	> 4	0.901	> 4	0.912	> 4
KMRC-1 (kidney, adherent, top dose 4 µM)	0.871	> 4	0.939	> 4	0.871	> 4
KMRC-20 (kidney, adherent, top dose 4 µM)	0.864	3.57	0.956	> 4	0.939	> 4
KMS-11 (myeloma, suspension, top dose 4 µM)	0.985	> 4	0.988	> 4	0.97	> 4
KNS-42 (glioma, adherent, top dose 4 µM)	0.813	2.7	0.94	> 4	0.971	> 4
KNS-62 (lung squamous cell carcinoma, adherent, top dose 4 µM)	0.776	2.38	0.953	> 4	0.959	> 4
KNS-81-FD (glioma, adherent, top dose 4 µM)	0.905	> 4	0.934	> 4	0.9	> 4
KOPN-8 (B-cell leukaemia, suspension, top dose 4 µM)	0.667	0.676	0.787	1.48	0.976	> 4
KP-1N (pancreas, adherent, top dose 4 µM)	0.878	> 4	0.967	> 4	0.955	> 4
KP-2 (pancreas, adherent, top dose 4 µM)	0.795	2.03	0.959	> 4	0.601	0.484

Cell Line	AUC [1]	IC50 [1] [µM]	AUC [2]	IC50 [2] [µM]	AUC [3]	IC50 [3] [µM]
KP-3 (pancreas, adherent, top dose 4 µM)	0.827	3.1	0.982	> 4	0.871	> 4
KP-N-YN (neuroblastoma, adherent, top dose 4 µM)	0.985	> 4	0.907	> 4	0.985	> 4
KS-1 (glioma, adherent, top dose 4 µM)	0.795	2.39	0.883	> 4	0.847	> 4
KU812 (chronic myeloid leukaemia, suspension, top dose 4 µM)	0.898	> 4	0.878	3.45	0.454	0.19
KU-19-19 (bladder, adherent, top dose 4 µM)	0.839	2.73	0.957	> 4	0.767	1.48
KURAMOCHI (ovary, adherent, top dose 4 µM)	0.979	> 4	0.983	> 4	0.984	> 4
KY821 (leukaemia, suspension, top dose 4 µM)	0.827	2.04	0.923	> 4	0.492	0.239
KYAE-1 (oesophagus, suspension, top dose 4 µM)	0.975	> 4	0.912	> 4	0.978	> 4
KYSE-50 (oesophagus, adherent, top dose 4 µM)	0.928	> 4	0.925	> 4	0.99	> 4
KYSE-140 (oesophagus, adherent, top dose 4 µM)	0.904	> 4	0.921	> 4	0.984	> 4
KYSE-150 (oesophagus, adherent, top dose 4 µM)	0.717	0.994	0.885	> 4	0.895	> 4
KYSE-220 (oesophagus, adherent, top dose 4 µM)	0.93	> 4	0.89	> 4	0.913	> 4
KYSE-410 (oesophagus, adherent, top dose 4 µM)	0.687	0.869	0.849	3.32	0.95	> 4
KYSE-450 (oesophagus, adherent, top dose 4 µM)	0.936	> 4	0.942	> 4	0.988	> 4
KYSE-510 (oesophagus, adherent, top dose 4 µM)	0.913	> 4	0.858	2.44	0.976	> 4
KYSE-520 (oesophagus, adherent, top dose 4 µM)	0.767	2.01	0.956	> 4	0.932	> 4
L-428 (Hodgkin lymphoma, suspension, top dose 4 µM)	0.986	> 4	0.992	> 4	0.992	> 4
L-540 (Hodgkin lymphoma, suspension, top dose 4 µM)	0.95	> 4	0.913	> 4	0.988	> 4
L-1236 (Hodgkin lymphoma, suspension, top dose 4 µM)	0.992	> 4	0.985	> 4	0.992	> 4
LAMA-84 (chronic myeloid leukaemia, suspension, top dose 4 µM)	0.53	0.303	0.82	2.35	0.902	> 4
LAN-6 (neuroblastoma, adherent, top dose 4 µM)	0.793	2.23	0.939	> 4	0.747	1.49
